Test in all cases: Primary Screen for Target Class Profiling of Small Molecule Inhibitors of Methyltransferases
Experiment [1] addresses Glycine N-methyltransferase (Homo sapiens) (UniProt Q14749). Particulars: purified enzyme, MTase-Glo SAH luminescence; measured here: GNMT inhibition; at 40 µM; stronger effect = lower value. The procedure, abridged:
(§1)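 Each enzyme was reacted with SAM and its substrate, with compounds tested once at 40 uM; SAH formed was read by MTase-Glo luminescence.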

Experiment [2] concerns the target Guanidinoacetate N-methyltransferase (Homo sapiens) (UniProt Q14353). Particulars: purified enzyme, MTase-Glo SAH luminescence; measured here: GAMT inhibition; at 40 µM; stronger effect = lower value. Put shortly:
as §1

Experiment [3] has as its target Histamine N-methyltransferase (Homo sapiens) (UniProt P50135). The conditions noted are these: purified enzyme, MTase-Glo SAH luminescence; measured here: HNMT inhibition; at 40 µM; stronger effect = lower value. Put shortly: as §1
Experiment [4] addresses Nicotinamide N-methyltransferase (Homo sapiens) (UniProt P40261). Particulars: purified enzyme, MTase-Glo SAH luminescence; measured here: NNMT inhibition; at 40 µM; stronger effect = lower value. The procedure, abridged:
as §1

The target of experiment [5] is Phenylethanolamine N-methyltransferase (Homo sapiens) (UniProt P11086). Particulars: purified enzyme, MTase-Glo SAH luminescence; measured here: PNMT inhibition; at 40 µM; stronger effect = lower value. Put shortly:
as §1

Where “and” joins values, the source holds several entries; their conditions need not be identical. Equal values may be shown once. The list shows a part of the results. The main result of the screen is listed elsewhere. These columns were measured beside it and carry no call.
% is set by controls: 0 for no effect and ±100 for the full control effect.

`COc1ccc(S(=O)(=O)NC[C@H]2Cn3c(-c4ccc(Cl)cc4)cnc3CO2)cc1`: the activity change, negative = inhibition in experiment [1] is -72.5%; in experiment [2], -15.3%; in experiment [3], -27.7%; in experiment [4], -33.1%; in experiment [5] it was -10.8%.
As to `CCNC(=O)O[C@H]1COCCN(c2nc3ccccc3o2)C1`, the activity change, negative = inhibition is -2.1% in experiment [1]; 0.764% in experiment [2]; -1.04% in experiment [3]; -5.16% in experiment [4]; -0.018% in experiment [5].
The matching figures for `O=c1cc(-c2ccccc2)[nH]c2nc(Cl)ccc12`: -3.57%, 3.6%, 0.376%, -6.05% and 5.34%.
For the molecule `CC(=O)N1CCC(C(=O)N2CCCC(c3nc4ncccc4[nH]3)C2)CC1` (stereo not given), the activity change, negative = inhibition was 1.78% in experiment [1]; -3.11% in experiment [2]; 1.59% in experiment [3]; -3.84% in experiment [4]; -13.7% in experiment [5].
As to `O=c1[nH]c(=O)c2nc3ccccc3nc2[nH]1`, the activity change, negative = inhibition was -9.88% in experiment [1]; 5.17% in experiment [2]; -0.265% in experiment [3]; -3.33% in experiment [4]; 7.13% in experiment [5].
`O=C(CCn1cncn1)N1CCC2(CCC(=O)N(CCc3ccncc3)C2)CC1`: the activity change, negative = inhibition in experiment [1] is -0.995%; in experiment [2] it was -2.43%; in experiment [3], -0.713%; in experiment [4], -2.23%; in experiment [5], -0.793%.
Turning to `COc1c(F)cccc1C(=O)N1C[C@@H](C)CC[C@H]1CNc1ccc(Br)cn1`, the activity change, negative = inhibition is 0.411% in experiment [1]; 7.09% in experiment [2]; 9.96% in experiment [3]; -12.7% in experiment [4]; -1.66% in experiment [5].
In the same order, the values of `O=C(COC(=O)C(Cc1c[nH]c2ccccc12)NC(=O)c1ccc(Br)cc1)c1ccccc1` (stereo not given) are 10.8%, 0%, 8.59%, -4.31% and 3.25%.
With `CCCCNc1nc2c(-c3cccc(Br)c3)nnn2c2ccccc12`, the activity change, negative = inhibition in experiment [1] is -0.349%; in experiment [2], 2.79%; in experiment [3], 2.19%; in experiment [4] it was 6.22%; in experiment [5] it was -3.64%.
As for `COc1ccc(CNC(=O)CN(C)S(=O)(=O)c2ccc3[nH]c4c(c3c2)CCCC4)cc1`, the activity change, negative = inhibition is -1.22% in experiment [1]; 0.253% in experiment [2]; -2.64% in experiment [3]; -6.47% in experiment [4]; 0.53% in experiment [5].
As for `CC(=O)O[C@H]1C[C@@]2(C)[C@@H](C[C@@H](O)[C@H]3[C@@]4(C)CC[C@@H](O)[C@@H](C)[C@@H]4CC[C@@]32C)/C1=C(\CCC=C(C)C)C(=O)O`, the activity change, negative = inhibition in experiment [1] is 1.54%; in experiment [2], 1.53%; in experiment [3], 13.4%; in experiment [4] it was -9.84%; in experiment [5], 4.35%.
`O=C1CC(c2noc(Cc3ccc(F)cc3)n2)CN1c1ccc(F)cc1` (stereo not given): the activity change, negative = inhibition in experiment [1] was -1.55%; in experiment [2] it was 1.57%; in experiment [3], 2.62%; in experiment [4], -3.83%; in experiment [5], 10.5%.
Consider `COc1ccc(CNc2cc3c(cn2)CN(C)CCN3)cc1OC`, for which the activity change, negative = inhibition was -7.65% in experiment [1]; -6.07% in experiment [2]; -89.3% in experiment [3]; -20.1% in experiment [4]; -8.76% in experiment [5].
Regarding `O=C(CCc1c[nH]c2ccccc12)NC1CCN(c2ccc(=O)[nH]n2)CC1`, the activity change, negative = inhibition in experiment [1] was -3.04%; in experiment [2], -0.43%; in experiment [3], -1.97%; in experiment [4] it was -6.87%; in experiment [5], -14%.
As for `COc1ccc(OC)c2c1cc1n2CC(C)(C(=O)NC2CCCCC2)N(Cc2ccccn2)C1=O` (stereo not given), the activity change, negative = inhibition in experiment [1] was -31.4%; in experiment [2] it was -8.7%; in experiment [3], -1.42%; in experiment [4], -8.39%; in experiment [5] it was -78.8%.
On to `O=C(Nc1ccc(S(=O)(=O)C(F)(F)F)cc1)C1=CCN(c2ncccc2C(F)(F)F)CC1`, for which the activity change, negative = inhibition is -1.17% in experiment [1]; -7.57% in experiment [2]; -3.78% in experiment [3]; -19.7% in experiment [4]; -14.4% in experiment [5].
With `CC1(C)CC[C@]2(C(=O)O[C@@H]3O[C@H](CO)[C@@H](O)[C@H](O)[C@H]3O)CC[C@]3(C)C(=CCC4[C@@]5(C)CC[C@H](OC6OC(C(=O)O)C(OC7OC(CO)C(O)C(O)C7O)C(O)C6O)C(C)(C)C5CC[C@]43C)C2C1` (stereo not given in full), the activity change, negative = inhibition in experiment [1] is 2.81%; in experiment [2], 6.16%; in experiment [3] it was 8.95%; in experiment [4] it was -9.35%; in experiment [5], -5.01%.
In the same order, the values of `Cc1ccc(NC(=O)c2ncn3c2C(=O)N(C2CC2)C(C)(C(=O)NC2CCCC2)C3)c(Cl)c1` (stereo not given) are -0.344%, 0%, 8.1%, -0.406% and 2.71%.
In the same order, the values of `COc1ccc(Sc2ccc(NC(=O)c3ccccc3Cl)cc2C#N)cc1` are 1.5%, -1.56%, 7.37%, -12.4% and 1.19%.
In the same order, the values of `CC(=O)N[C@@H](CS)C(=O)O` are 3.62%, -3.8%, 5.5%, -13.7% and -7.68%.
Take `CCCn1c(=O)c2ccc(Cl)cc2n2c(=O)n(CC(=O)Nc3ccc(CC)cc3)nc12`: the activity change, negative = inhibition was 0.201% in experiment [1]; 1.56% in experiment [2]; 3.01% in experiment [3]; -2.96% in experiment [4]; -1.77% in experiment [5].
As to `COc1ccc(CCNC(=O)c2cc3n(n2)CC(C)(C(=O)NC2CCCCC2)N(C)C3=O)cc1OC` (stereo not given), the activity change, negative = inhibition in experiment [1] is -7.25%; in experiment [2], 5.07%; in experiment [3], -2.51%; in experiment [4], -0.85%; in experiment [5], 1.47%.
Regarding `COCCN(C)C[C@@H]1CN(C(=O)c2ccc(Cl)s2)C[C@@H]1CO`, the activity change, negative = inhibition in experiment [1] is -6.8%; in experiment [2], -5.95%; in experiment [3], -10.4%; in experiment [4], -6.79%; in experiment [5] it was -7.83%.
Take `Cc1ccc(C2c3cccn3-c3sc4c(c3CN2C(=O)Nc2ccc(F)cc2)CCCC4)cc1` (stereo not given): the activity change, negative = inhibition in experiment [1] is -5.33%; in experiment [2], -11.1%; in experiment [3], 1.3%; in experiment [4], -5.47%; in experiment [5], -1.34%.
On to `O=C(NC[C@H]1OC[C@@H](N(Cc2cnc[nH]2)Cc2cnc[nH]2)[C@@H]1O)C1CCCC1`, for which the activity change, negative = inhibition in experiment [1] amounted to 0.067%; in experiment [2] it was 1%; in experiment [3], 1.78%; in experiment [4] it was 0.462%; in experiment [5], 2%.
For the molecule `Nc1c(NC/C=C\COc2cc(CN3CCCCC3)ccn2)c(=O)c1=O`, the activity change, negative = inhibition in experiment [1] is -3.61%; in experiment [2] it was 6.95%; in experiment [3] it was -69.6%; in experiment [4], -24.2%; in experiment [5], -13%.
`C[C@]1(c2nc3c(C(N)=O)cccc3[nH]2)CCCN1`: the activity change, negative = inhibition in experiment [1] is -0.647%; in experiment [2], 2.89%; in experiment [3] it was 7.57%; in experiment [4] it was 0.614% and -14.7%; in experiment [5], 17% and 2.34%.
Take `Cc1nc(C(C)C)sc1C(=O)N1C[C@@H](C)[C@](O)(C2CCC2)C1`: the activity change, negative = inhibition was -2.84% in experiment [1]; -4.3% in experiment [2]; -2.43% in experiment [3]; -6.46% in experiment [4]; -2.63% in experiment [5].
In the same order, the values of `CCOc1ccccc1CN1C(=O)c2cc3ccccc3n2CC1(C)C(=O)NC1CCCCC1` (stereo not given) are -2.23%, 2.45%, -2.52%, 4.28% and -1.42%.
As to `Cc1ccc(CNC(=O)CCCn2ccc3cc(S(=O)(=O)N4CCCC4)ccc32)o1`, the activity change, negative = inhibition in experiment [1] worked out at 0.981%; in experiment [2] it was 0.969%; in experiment [3], 1.95%; in experiment [4] it was 3.77%; in experiment [5] it was 4.23%.
